Reference: PubChem BioAssay AID624417 (National Center for Advancing Translational Sciences (NCATS), 2012)
Hit rate of the full screen: of about 410,000 compounds, about 6,400 (1.6%) were called active. This list was built around the results that the source calls inconclusive (neither active nor inactive); the mix of calls is not that of the screen. Calls follow the shape of the dose curve; as a rule, active = well fitted inhibition curve with a large enough effect; inconclusive = small, poorly fitted or top-dose-only effect; inactive = no such curve, though single readings can be large or run the other way. Potencies of inconclusive entries are left out as doubtful fits.
Also: nearly all actives have a fitted effect of over 55% in size.
Potency is read from the fitted curve at half-maximal effect; tags tell the direction and shape of the fitted curve.

These compounds were tested against Glucagon-like peptide 1 receptor (Homo sapiens) (UniProt P43220) (assay: qHTS of GLP-1 Receptor Inverse Agonists (Inhibition Mode)). Details: HEK293 GLP-1R CRE-luciferase, luminescence, 24 h, GLP-1R form is constitutively active; series mostly up to 38.3 µM.
Sequence of UniProt P43220 (P43220 whole entry, looked up): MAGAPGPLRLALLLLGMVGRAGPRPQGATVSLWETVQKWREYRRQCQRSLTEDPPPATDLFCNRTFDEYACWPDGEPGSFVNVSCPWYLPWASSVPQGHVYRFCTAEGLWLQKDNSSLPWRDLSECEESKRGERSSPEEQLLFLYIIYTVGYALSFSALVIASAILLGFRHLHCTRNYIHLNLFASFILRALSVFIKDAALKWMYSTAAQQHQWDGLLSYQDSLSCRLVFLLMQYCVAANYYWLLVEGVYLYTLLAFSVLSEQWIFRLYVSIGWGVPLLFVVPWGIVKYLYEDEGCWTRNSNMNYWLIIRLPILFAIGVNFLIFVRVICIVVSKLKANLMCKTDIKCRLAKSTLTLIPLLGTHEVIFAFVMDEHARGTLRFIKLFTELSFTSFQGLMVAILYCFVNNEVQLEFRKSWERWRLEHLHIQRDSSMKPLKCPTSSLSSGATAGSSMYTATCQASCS
Summary of the method: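 GLP-1R inverse agonism mode: basal reporter luminescence in engineered HEK293 cells measured after one day of compound exposure at 37 deg C, with a 12 min room-temperature detection step.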
O=C1N/C(=N/NC(=O)c2cccc3ccccc23)S/C1=C\c1ccccc1OCc1ccccc1 was tested, and the Potency was inconclusive [inhibitor, single point]. In the case of Cc1cccc2cc(CN(C(=O)c3cccc(Cl)c3)c3ccccc3)c(=O)[nH]c12, the Potency is reported as “inactive”. CCN(C(=O)CSc1nc(-c2ccccc2)no1)c1cccc(C)c1 was tested, and the Potency was active: 1.26 µM. In the case of O=C1c2ccccc2C2=Nc3ccccc3SC(c3cccc(F)c3)C12 (centres undefined), the Potency is reported as inconclusive [inhibitor, partial curve, poor fit]. With CCOC(=O)c1ccc(NC(=O)c2nn(C)cc2Br)cc1 the Potency was “inactive”. In the case of O=C(NCC1CCN(Cc2ccc(Cl)cc2)CC1)C1CCCN(c2ncnc3c2nc2n3CCCCC2)C1 (centres undefined), the Potency is reported as inconclusive [inhibitor, full curve, poor fit]. In the case of Cc1cnc(NC(=O)c2cc(S(=O)(=O)N(C)C)ccc2N2CCCC2)s1, the Potency is reported as inconclusive [inhibitor, full curve, poor fit]. With Cc1cccc(N(CC(=O)Nc2ccccc2-c2ccccc2)S(=O)(=O)c2ccccc2)c1C the Potency was inconclusive [inhibitor, partial curve, poor fit]. Cc1nonc1C1CCCN1C(=O)c1cc(COc2ccc(F)cc2Cl)on1 (centres undefined) was tested, and the Potency was inconclusive [inhibitor, single point]. For COc1ccccc1N1CCN(c2ccc(=O)n(CC(=O)O)n2)CC1, the Potency was “inactive”. CCOCC(=O)Nc1ccc(-c2cn3c(C)csc3n2)cc1 was tested, and the Potency was “inactive”. With NC(=NCCc1c[nH]c2ccccc12)NC(=O)c1ccc(F)cc1 the Potency was inconclusive [inhibitor, partial curve, poor fit]. With OCCC1CN(Cc2cccc(C(F)(F)F)c2)CCN1Cc1ccccc1 (centres undefined) the Potency was inconclusive [inhibitor, partial curve, poor fit]. With COc1cc(NC(=O)CN(C)C2CCCCC2)c(C)cc1[N+](=O)[O-] the Potency was “inactive”. With CC1CCCC(N2CCN(S(=O)(=O)c3ccccc3)CC2)C1 (centres undefined) the Potency was inconclusive [inhibitor, single point]. In the case of Cc1ccc2c(c1)cc(C(=O)NCc1ccc(F)cc1)n2C, the Potency is reported as inconclusive [inhibitor, full curve, poor fit]. Cc1ccc(OCCSCc2nc3ccccc3[nH]2)cc1 was tested, and the Potency was inconclusive [inhibitor, partial curve, poor fit]. With Cc1nnc(N2CCC(C(=O)NCc3ccc(F)cc3)CC2)c2nn(-c3ccc(Cl)cc3)c(C)c12 the Potency was “inactive”. For COc1ccc(CN2CCN(c3ncccn3)CC2)c(C)c1C, the Potency was inconclusive [inhibitor, single point]. In the case of COc1ccccc1NC(=S)N(Cc1ccco1)Cc1cc2cc(C)ccc2[nH]c1=O, the Potency is reported as inconclusive [inhibitor, partial curve, poor fit]. For COc1ccc(Cl)cc1Cn1c(C)c(C(=O)NCc2ccc(F)cc2)sc1=O, the Potency was inconclusive [inhibitor, single point]. O=C(NCC1CC1)c1cc2c(c(-c3cccc(-c4ccccc4F)c3)n1)[C@@H](CCO)N(C(=O)CC1CC1)C2 was tested, and the Potency was inconclusive [inhibitor, single point]. For COc1ccccc1N(C)S(=O)(=O)c1ccc(Cl)c(C(=O)NCC2(N(C)C)CCCCC2)c1, the Potency was inconclusive [inhibitor, single point]. With O=C(c1cc(Cl)ccc1Cl)N1CCN(Cc2ccccc2)CC1 the Potency was inconclusive [inhibitor, single point]. With Cc1ccc(OCC(=O)Nc2ccc(C(=O)Nc3ccccc3C(=O)O)cc2)cc1C the Potency was “inactive”. For COC(=O)c1cnn(-c2ccc(Cl)cc2)c1/C=N/NC(N)=S, the Potency was inconclusive [inhibitor, partial curve, poor fit]. With Cc1ccccc1NC(=O)c1c(C)oc2ccc(O)c(CN3CCCC(C)C3)c12 (centres undefined) the Potency was inconclusive [inhibitor, single point]. With Cn1c(SCc2cccc3ccccc23)nnc1-c1ccco1 the Potency was inconclusive [inhibitor, single point]. With CN(C)/C=N/C(=S)Nc1ccc(Cl)c(Cl)c1 the Potency was inconclusive [inhibitor, partial curve, poor fit]. CSc1ccccc1OCc1cc(C(=O)NC(C)CCn2cccn2)no1 (centres undefined) was tested, and the Potency was inconclusive [inhibitor, partial curve, poor fit]. With CC(C)C[C@H]1CNC(=S)N1CC1CCN(CC2CCCC2)CC1 the Potency was “inactive”. COc1ccccc1NC(=O)c1ccc2[nH]c(C)cc(=O)c2c1 was tested, and the Potency was “inactive”. For NC(=S)NN=C1CCC(C2CCCCC2)CC1 (centres undefined), the Potency was active: 2.24 µM. In the case of Cc1cc(C)c(S(=O)(=O)c2ccc(F)cc2)c(C)c1, the Potency is reported as inconclusive [inhibitor, single point]. In the case of CCOC(=O)C1(Cc2cccc(OC)c2)CCN(Cc2ccc(OC)c(OC)c2)CC1, the Potency is reported as inconclusive [inhibitor, partial curve, poor fit]. In the case of COc1ccc(C[C@H]2CN3C(=NC[C@@H]3Cc3ccc(O)cc3)N2C[C@H](C)NC(=O)CCC2CCCCC2)cc1, the Potency is reported as “inactive”. In the case of Clc1ccc2c(N/N=C/c3cccc(Br)c3)ccnc2c1, the Potency is reported as active: 12.6 µM. For O=C(NC1CCCC1)C1CCCN(S(=O)(=O)c2cnc[nH]2)C1 (centres undefined), the Potency was “inactive”. CC(=O)Nc1ccccc1OCC(=O)c1cc(C)n(Cc2cccs2)c1C was tested, and the Potency was “inactive”. In the case of Cc1c(NC(=O)C(C)Sc2ncnc3ccccc23)c(=O)n(-c2ccccc2)n1C (centres undefined), the Potency is reported as inconclusive [inhibitor, partial curve, poor fit]. CCOC(=O)c1cnn(-c2ncnc3c2oc2ccccc23)c1N was tested, and the Potency was “inactive”. CCN(C(=O)CSc1nc2ccccc2nc1Cc1cccc(OC)c1)c1cccc(C)c1 was tested, and the Potency was active: 11.2 µM. CCC1Nc2ncnc(N3CCCCC3)c2N(Cc2ccc(Br)cc2)C1=O (centres undefined) was tested, and the Potency was inconclusive [inhibitor, partial curve, poor fit]. For Cc1nc2sc(C(c3ccc(Br)cc3)N3CC(C)OC(C)C3)c(O)n2n1 (centres undefined), the Potency was inconclusive [inhibitor, full curve].
